Data published in patent publication US20130084291A1 (ACCELERON PHARMA, published 2013).

Target: TNF-alpha
Test: cell-based or functional assay

TNF-alpha, sequence (P01375 77-233): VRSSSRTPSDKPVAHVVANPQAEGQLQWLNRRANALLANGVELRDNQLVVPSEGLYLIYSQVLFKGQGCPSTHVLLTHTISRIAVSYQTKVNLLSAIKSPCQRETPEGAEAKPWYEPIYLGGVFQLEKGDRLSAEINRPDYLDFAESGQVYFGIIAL

B1: TNFR2-h(2)Fc (Fc fusion)
chain: LPAQVAFTPYAPEPGSTCRLREYYDQTAQMCCSKCSPGQHAKVFCTKTSDTVCDSCEDSTYTQLWNWVPECLSCGSRCSSDQVETQACTREQNRICTCRPGWYCALSKQEGCRLCAPLRKCRPGFGVARPGTETSDVVCKPCAPGTFSNTTSSTDICRPHQICNVVAIPGNASMDAVCTSTSPTRSMAPGAVHLPQPVSTRSQHTQPTPEPSTAPSTSFLLPMGPSPPAEGSTGDTG[… human IgG1 Fc and a few adjoining residues …]
  IC50 (ng/ml), WEHI assay as in Example 3: 6.6 ng/mL
